This is one part of the list. At the low end of the ranking, values are background and their order means little.

This experiment deals with SIX1 homeodomain (reference allele) (UniProt Q15475). Nature of the experiment: universal protein binding microarray. The settings on record: Universal all-10-mer PBM (8x60K, AMADID 030236), 300 nM GST-tagged protein, Alexa Fluor 488 anti-GST; buffer, salt, pH and temperature not stated; high values mean tight binding; most listed sequences are background and not binding sites; double strand, one strand shown.
Take ATGCGAAA: the binding signal is -0.127 E-score.

For TATGCTAA, the binding signal is 0.0443 E-score.

Consider GCCATGAC, for which the binding signal is -0.14 E-score.

As for AATGGCGC, the binding signal is -0.345 E-score.

Take AATTCCAG: the binding signal was -0.107 E-score.

On to AGGTATGG, for which the binding signal turned out to be 0.177 E-score.

For the sequence CCTCTGAC, the binding signal amounted to 0.036 E-score.

In the case of CACGCCCG, the binding signal stood at 0.123 E-score.

Regarding GGGAAGAC, the binding signal was -0.19 E-score.

As to CCCTAATA, the binding signal was found to be 0.0416 E-score.

For the sequence ACATACAA, the binding signal was -0.137 E-score.

With AGGCAGCG, the binding signal was -0.205 E-score.

In the case of ATATGCGC, the binding signal was found to be 0.27 E-score.

For the sequence CGCTTCCC, the binding signal was -0.0926 E-score.

For the sequence AAGCAGAA, the binding signal is -0.0948 E-score.

Take AATCTCCA: the binding signal amounted to 0.0639 E-score.

On to CGCATCAA, for which the binding signal was -0.0168 E-score.

With AAAGTCCT, the binding signal was -0.24 E-score.

Consider GCGTTGTA, for which the binding signal is -0.0943 E-score.

On to CCGATGAG, for which the binding signal came out at 0.173 E-score.

On to ACTCCACT, for which the binding signal was -0.0647 E-score.

Take GTGGTGCA: the binding signal was -0.199 E-score.

GATACCCA: the binding signal is 0.476 E-score.

In the case of GCCACTAA, the binding signal is -0.146 E-score.

As for GCGTGTAA, the binding signal is -0.0171 E-score.

On to AGTCCCAA, for which the binding signal was -0.211 E-score.

Take ACTTATCT: the binding signal was determined as 0.138 E-score.

ACGGATCC: the binding signal was found to be 0.386 E-score.

On to AGACCTCA, for which the binding signal was -0.197 E-score.

Turning to GGTGCCAA, the binding signal was -0.0189 E-score.

Consider GAGCACCC, for which the binding signal came out at 0.165 E-score.

Turning to CGTTAGGC, the binding signal is -0.0658 E-score.

For the sequence CTGGTTAC, the binding signal is -0.172 E-score.

As to CACACCTC, the binding signal was determined as 0.267 E-score.

With ATCGTCCG, the binding signal was 0.135 E-score.

TATTCCAA: the binding signal was found to be 0.106 E-score.

In the case of GTTGAGAA, the binding signal is -0.0667 E-score.

Take GGTAACGA: the binding signal stood at 0.128 E-score.

CAAGGCGA: the binding signal was -0.0927 E-score.

ATGTGCCC: the binding signal was -0.0537 E-score.

In the case of GGGTTACA, the binding signal was determined as 0.0369 E-score.

In the case of TAGCGTGA, the binding signal was -0.0844 E-score.

For the sequence AGTTCTCG, the binding signal is -0.139 E-score.

For CCGTTGCG, the binding signal was -0.0425 E-score.

With CATTATCA, the binding signal came out at 0.133 E-score.

For the sequence CCGTCGAC, the binding signal is -0.149 E-score.

Turning to ACCCGCTG, the binding signal worked out at 0.0161 E-score.

As for CTTTTTTA, the binding signal is -0.232 E-score.

On to GAACGTAC, for which the binding signal is -0.173 E-score.

Turning to TAATGTCA, the binding signal was -0.237 E-score.

In the case of AGTAAACA, the binding signal is -0.0318 E-score.

With CAAGTGTC, the binding signal is -0.131 E-score.

With CCGGTACC, the binding signal is 0.0853 E-score.

Turning to ACCCCAAA, the binding signal amounted to 0.186 E-score.

Turning to TTCACGAA, the binding signal is -0.279 E-score.

On to CCTCTTAA, for which the binding signal is -0.0528 E-score.

For ACCCGAAT, the binding signal is 0.131 E-score.

CAGATCTG: the binding signal came to 0.216 E-score.

As for CCACGTCG, the binding signal was -0.0838 E-score.

AGATAAGG: the binding signal came to 0.102 E-score.

As for TACGTAAA, the binding signal is -0.25 E-score.

Turning to ATCCAGTG, the binding signal was determined as 0.259 E-score.

CGTTTCAA: the binding signal is -0.0446 E-score.

With AAAATTGC, the binding signal is -0.164 E-score.

Regarding AACAAGCG, the binding signal was -0.102 E-score.

With CCTTTTCA, the binding signal is -0.0436 E-score.

As for TCACGTAA, the binding signal turned out to be 0.0646 E-score.

In the case of ATTAGAGA, the binding signal was -0.0906 E-score.

As for CGCAAGAC, the binding signal was -0.0946 E-score.

Take CGCGATGA: the binding signal was determined as 0.0874 E-score.

Take AAAATACG: the binding signal amounted to 0.116 E-score.

With ACTCGCTC, the binding signal was -0.15 E-score.

In the case of CTTGGCTA, the binding signal is -0.0874 E-score.

For the sequence CATATGAG, the binding signal is 0.19 E-score.

In the case of GCACCAAA, the binding signal is -0.0677 E-score.

As for AACACGTT, the binding signal was -0.151 E-score.

With GGAGGGTA, the binding signal came out at 0.295 E-score.

For the sequence CAACTCTG, the binding signal was -0.0195 E-score.

In the case of AACTATCG, the binding signal amounted to 0.149 E-score.

AAGATAAC: the binding signal amounted to 0.00477 E-score.

For the sequence AAACGTAA, the binding signal was -0.322 E-score.

In the case of AGATTTGG, the binding signal was -0.138 E-score.

Consider AGGGATAC, for which the binding signal was determined as 0.415 E-score.

Consider ACCCGATG, for which the binding signal was 0.138 E-score.

For CCTGTGTA, the binding signal is -0.0314 E-score.

Consider CCCGAAAC, for which the binding signal was -0.0573 E-score.

For the sequence CGAGCACG, the binding signal was -0.0291 E-score.

On to CTACCTCA, for which the binding signal was -0.204 E-score.

AAGACCGT: the binding signal was -0.132 E-score.

Take CACCAGAC: the binding signal is 0.219 E-score.

With CGCCAGGA, the binding signal was -0.0391 E-score.

On to TCCAGGGA, for which the binding signal amounted to 0.0659 E-score.

In the case of GTGAAAAC, the binding signal is -0.236 E-score.

As for ACCGTTAA, the binding signal was -0.09 E-score.

Turning to GACTATGC, the binding signal worked out at 0.0479 E-score.

With CCCCTAGC, the binding signal was -0.0317 E-score.

Regarding ATTCTGTA, the binding signal amounted to 0.0169 E-score.

As for AGCGACAG, the binding signal is -0.133 E-score.

For TTCTGCAA, the binding signal was -0.0641 E-score.

Consider CCTTCCAA, for which the binding signal is -0.201 E-score.

Take CGCCTGCA: the binding signal was -0.0423 E-score.

Take CGCTTTTC: the binding signal was -0.113 E-score.

ATGGTTTA: the binding signal was -0.00407 E-score.

For the sequence AACAGGGA, the binding signal was -0.028 E-score.

On to GGATAGCC, for which the binding signal stood at 0.35 E-score.

Regarding CCAGAAGC, the binding signal was -0.121 E-score.

On to GGTATTGA, for which the binding signal was determined as 0.386 E-score.

CCTAAACG: the binding signal is -0.282 E-score.

On to GATATAAC, for which the binding signal came to 0.316 E-score.

With AGGCACGC, the binding signal is -0.185 E-score.

Take CACCGTCG: the binding signal came out at 0.0527 E-score.

As for GACGAGTA, the binding signal was -0.0154 E-score.

AGGTTGAT: the binding signal was 0.106 E-score.

For the sequence CGTCCGCA, the binding signal was -0.162 E-score.

For the sequence GATCGACC, the binding signal stood at 0.162 E-score.

With CACCGTAA, the binding signal was found to be 0.0371 E-score.

In the case of ACATTTCA, the binding signal was -0.108 E-score.

Regarding CGGGGCAG, the binding signal was -0.0556 E-score.

For CAGGCTAC, the binding signal was -0.0114 E-score.

Consider GAGCCTGA, for which the binding signal was -0.0603 E-score.

On to AAGCCATG, for which the binding signal is -0.0651 E-score.

Take TAGACCTA: the binding signal came out at 0.0118 E-score.

As for GACTGGCA, the binding signal was -0.306 E-score.

As to AGAGTTTG, the binding signal was -0.0975 E-score.

For the sequence AATAGCAC, the binding signal came to 0.0402 E-score.

Turning to GGACCCGA, the binding signal was -0.0718 E-score.

For the sequence ATGGTTCG, the binding signal is -0.056 E-score.

For the sequence CTGCTAGC, the binding signal was -0.128 E-score.

For the sequence ACCAGCAA, the binding signal was -0.178 E-score.

On to AAGCATCG, for which the binding signal was -0.137 E-score.

In the case of CAGCACGA, the binding signal is -0.0264 E-score.

As for CTAGAGAG, the binding signal is -0.0884 E-score.

On to GGAGGCCC, for which the binding signal was -0.291 E-score.

As to ACGGTAGG, the binding signal was -0.00813 E-score.

In the case of GATGGGGC, the binding signal is -0.0523 E-score.

As for CCGTCTGC, the binding signal is -0.0576 E-score.

In the case of AGATTCAG, the binding signal is -0.226 E-score.

As to GCCCCAAC, the binding signal is -0.0945 E-score.

As for GGAGTACA, the binding signal was 0.0626 E-score.

As for GACGGTAC, the binding signal turned out to be 0.0329 E-score.

Consider CATTGAAG, for which the binding signal was -0.169 E-score.

As to CACAGAAG, the binding signal is -0.0147 E-score.

As for ATCAGGCA, the binding signal is 0.0745 E-score.

On to AAATATCG, for which the binding signal came to 0.128 E-score.

Regarding CCATGTAG, the binding signal is -0.0954 E-score.

As for ACTACAGA, the binding signal came to 0.0645 E-score.

With ATGCACCC, the binding signal is 0.086 E-score.

As to ACAGATCC, the binding signal was 0.288 E-score.

As to CGTGGGTC, the binding signal stood at 0.00723 E-score.

For CACAGCAA, the binding signal worked out at 0.113 E-score.

Regarding AGACTTTG, the binding signal was -0.281 E-score.

On to CTGTGACC, for which the binding signal was -0.0966 E-score.

Take GAATCGAA: the binding signal is -0.126 E-score.

On to CTTAGCAA, for which the binding signal was -0.242 E-score.

On to AAGGTTCC, for which the binding signal is -0.12 E-score.

As to AGCGAGCT, the binding signal amounted to 0.0842 E-score.

On to TATCGAAA, for which the binding signal is 0.345 E-score.

In the case of GAATCATA, the binding signal is -0.0778 E-score.

On to ATACAGAG, for which the binding signal amounted to 0.116 E-score.

GGCGAAAA: the binding signal is -0.32 E-score.

As to TCATGACA, the binding signal worked out at 0.0517 E-score.

For AGCACTCA, the binding signal is -0.228 E-score.

Turning to AAGGGTAT, the binding signal was 0.41 E-score.

For ATGCATTA, the binding signal turned out to be 0.148 E-score.

On to AACGTCCT, for which the binding signal was -0.237 E-score.

GCAACCCC: the binding signal is -0.0952 E-score.

As for CCCGATGC, the binding signal stood at 0.112 E-score.

Turning to AATATTGA, the binding signal is 0.0107 E-score.

GATCATAA: the binding signal was determined as 0.306 E-score.

For the sequence GATAGTAA, the binding signal came to 0.221 E-score.

Regarding CAAGCCGC, the binding signal is -0.136 E-score.

For GGCAGAAC, the binding signal was -0.0861 E-score.

For the origin of these results see article PMC10668032.
